Measured values reported in PubChem BioAssay AID686978 (National Center for Advancing Translational Sciences (NCATS), 2013).
Hit rate of the full screen: of about 420,000 compounds, about 64,000 (15%) were called active. The shares of active, inactive and inconclusive entries below differ from those in the screen. Calls come from the whole dose curve; as a rule, active = well fitted inhibition curve with a large enough effect; inconclusive = small, poorly fitted or top-dose-only effect; inactive = flat fitted curve, though single readings scatter. No potency is given beside an inconclusive call; the fits are too rough.

assay: qHTS for Inhibitors of human tyrosyl-DNA phosphodiesterase 1 (TDP1): qHTS in cells in absence of CPT; details: DT40 Tdp1-/- hTDP1 cells, no CPT, ATP luminescence, 48 h; series mostly up to 46.2 µM; note: nearly all actives have a fitted effect of over 55% in size
In short: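 Luminescent ATP content (CellTiter-Glo) served as the growth readout. Knockout chicken DT40 cells expressing human TDP1 were exposed to compounds without camptothecin for a minimum 48 hr at 37 °C.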
Potency is the fitted concentration of half-maximal effect; tags give direction and shape of the fitted curve.

SMILES	Potency
COc1ccccc1Nc1nc(C)c(C(=O)Nc2ccccc2)s1	inconclusive [inhibitor, single point]
CC(=O)N1CCN(Cc2cc(=O)oc3ccc4ccccc4c23)CC1	inconclusive [inhibitor, single point]
C[C@@H](NC(=O)c1ncn(Cc2ccccc2)c1C(=O)N[C@H](C)c1ccccc1)c1ccccc1	inconclusive [inhibitor, single point]
CC(C)(C)OC(=O)C[C@@H]1C/C=C\C[C@@H](CC(=O)N(CCO)Cc2ccccc2)C(=O)N[C@@H](c2ccccc2)COC1=O	active: 23.1 µM
CC(C)N(C)c1ncnc2c1ncn2[C@H]1CN(Cc2ccc3c(c2)OCO3)C[C@@H](CO)O1	inconclusive [inhibitor, partial curve]
CCOc1ccc(CC(=O)NCC(c2cccs2)S(=O)(=O)c2ccc(F)c(C)c2)cc1 (centres undefined)	inactive
Cc1cc(C(=O)NNC(=O)c2ccccc2F)c2ccccc2n1	inactive
O=C(Nc1nnc([C@@H]2C[C@H](O)[C@@H](CO)O2)s1)c1ccccc1Cl	inactive
CCOC(=O)c1c(C)c(-c2ccccc2)n(CC(=O)NC(CC)Cc2ccccc2)c1C (centres undefined)	inconclusive [inhibitor, partial curve, poor fit]
COc1ccc(S(=O)(=O)Nc2cccc3c2O[C@H](CN(C)Cc2ccc(Cl)c(Cl)c2)[C@@H](C)CN([C@H](C)CO)C3=O)cc1	active: 18.4 µM
COc1ccc2[nH]cc(CCNC(=O)COc3cc(C)cc4oc(=O)cc(C)c34)c2c1	inconclusive [inhibitor, single point]
O=C(NCC(c1ccco1)N1CCc2ccccc21)c1ccccc1Br (centres undefined)	inconclusive [inhibitor, single point]
COc1cc2c(c(OC)c1OC)-c1c(cc3c(c1OC)OCO3)C1OC2[C@@H](C)[C@H]1C (some centres undefined)	inconclusive [inhibitor, single point]
O=C(Nc1ccc2oc(-c3cccnc3)nc2c1)c1ccc2c(c1)OCCO2	inconclusive [inhibitor, partial curve]
Cc1ccc(NC(=O)CS(=O)CC(=O)NC23CC4CC(CC(C4)C2)C3)cc1 (centres undefined)	inconclusive [inhibitor, single point]
CCOC(=O)N1CCC(NS(=O)(=O)c2ccc3c(c2)oc(=O)n3C)CC1	inactive
Cc1cc(C)n(-c2nc(NCC(C)O)c3c4c(sc3n2)CCCC4)n1 (centres undefined)	active: 18.4 µM
CS(=O)(=O)N1CCc2cc(-c3csc(NC(=O)Cc4ccccc4)n3)ccc21	inconclusive [inhibitor, single point]
CC(C(=O)N1CCc2ccccc21)N1CCN(S(=O)(=O)c2ccc(C(F)(F)F)cc2)CC1 (centres undefined)	inconclusive [inhibitor, single point]
CC1(c2cccc3ccccc23)OC(=O)c2ccccc21 (centres undefined)	inconclusive [inhibitor, single point]
COc1ccc(CCNCC(=O)Nc2ccc(C(=O)N3CCCCC3)cc2)cc1	inconclusive [inhibitor, partial curve]
O=C(Nc1cccc(-c2cnc3ccccc3n2)c1)c1ccc(Cl)cc1	inactive

SMILES	Potency
CC1CCCN(c2nc3c(c(=O)n(C)c(=O)n3C)n2CCSc2nc3ccccc3o2)C1 (centres undefined)	active: 20.6 µM
Cc1ccc(/C=N/NC(=O)C(NC(=O)c2ccccc2)c2n[nH]c(=O)c3ccccc23)cc1 (centres undefined)	inactive
CCOC(=O)C1NN=C(C(=O)c2ccccc2)C1c1ccccc1 (centres undefined)	inconclusive [inhibitor, single point]
COc1ccc(S(=O)(=O)Nc2c(C)cc(C)cc2C)c2cccnc12	inactive
CC1CC(C)CN(C(=O)c2cccc(N3C(=O)c4ccccc4C3=O)c2)C1 (centres undefined)	inactive
CCc1ccccc1N(C)C(=O)c1ccc2c(=O)n3c(nc2c1)CCCCC3	inconclusive [inhibitor, single point]
CCCCn1c(=O)n(CC(=O)Nc2c(CC)cccc2CC)c(=O)c2c1nc(CO)n2CCC	inactive
CCCOC(=O)c1ccc(-c2c(C)noc2-c2ccc(OC)cc2O)o1	inconclusive [inhibitor, single point]
COc1ccc(N2CCN(C(=O)CCc3c(C)nc4cc(-c5ccc(OC)cc5OC)nn4c3C)CC2)cc1	active: 16.4 µM
CCc1ccccc1NC1=NCC(=O)N1C1CCCC1	inconclusive [inhibitor, single point]
CC1Cc2cc(/C(O)=C3/C(=O)C(=O)N(CCCn4ccnc4)C3c3ccc(F)cc3)ccc2O1 (centres undefined)	inactive
NC(=O)c1ccccc1OCC(=O)N1CCCc2ccccc21	inconclusive [inhibitor, single point]
Cc1ccc(-c2cc(C(=O)Nc3cc(C(=O)O)ccc3C)c3ccccc3n2)cc1	inconclusive [inhibitor, single point]
COc1ccc(-n2c(=O)c(-c3cccs3)nc3cnc(Oc4ccccc4)nc32)cc1	inactive
COc1ccc(C(CNC(=O)c2cccc(S(=O)(=O)N3CCCc4ccccc43)c2)N(C)C)cc1 (centres undefined)	inconclusive [inhibitor, single point]
O=C(/C=C/c1c(F)cccc1Cl)N1CCc2ccccc2C1	inconclusive [inhibitor, single point]
CCOC(=O)/C(C#N)=C/C1=C(N2CCOCC2)CC(C)(C)OC1	inactive
COc1cc(/C=C2/C(=N)N3C=CSC3=NC2=O)ccc1OCCOc1ccc(NC(C)=O)cc1	inactive
c1ccc(N2CCN(c3nnc(Cc4cccnc4)c4ccccc34)CC2)nc1	inconclusive [inhibitor, single point]
COc1cccc(N2CC(O)=C(c3nc4ccccc4s3)C2=N)c1	active: 1.46 µM
COc1ccc(/C=C2\C=Cc3ccccc32)cc1	inactive
CCCOc1ccc(C2C(=O)N(C3CCCCCC3)CC(=O)N2CCC)cc1OC (centres undefined)	inconclusive [inhibitor, single point]
